Data taken from publication PMC4336329 (PLoS ONE, 2015).
The campaign covered roughly 310,000 compounds. About 14,000 (4.5%) showed an effect of 50% or more. Effects have a minus sign here. The list shows a part of the results.

biological target: human ether-à-go-go-related gene (hERG) potassium channel (human, UniProt Q12809); test: primary screen, population patch clamp on CHO cells stably expressing hERG
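Further: peak tail current of the secondary pulse compared with the same well before compound.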

Chain of human ether-à-go-go-related gene (hERG) potassium channel (Q12809 whole entry, looked up): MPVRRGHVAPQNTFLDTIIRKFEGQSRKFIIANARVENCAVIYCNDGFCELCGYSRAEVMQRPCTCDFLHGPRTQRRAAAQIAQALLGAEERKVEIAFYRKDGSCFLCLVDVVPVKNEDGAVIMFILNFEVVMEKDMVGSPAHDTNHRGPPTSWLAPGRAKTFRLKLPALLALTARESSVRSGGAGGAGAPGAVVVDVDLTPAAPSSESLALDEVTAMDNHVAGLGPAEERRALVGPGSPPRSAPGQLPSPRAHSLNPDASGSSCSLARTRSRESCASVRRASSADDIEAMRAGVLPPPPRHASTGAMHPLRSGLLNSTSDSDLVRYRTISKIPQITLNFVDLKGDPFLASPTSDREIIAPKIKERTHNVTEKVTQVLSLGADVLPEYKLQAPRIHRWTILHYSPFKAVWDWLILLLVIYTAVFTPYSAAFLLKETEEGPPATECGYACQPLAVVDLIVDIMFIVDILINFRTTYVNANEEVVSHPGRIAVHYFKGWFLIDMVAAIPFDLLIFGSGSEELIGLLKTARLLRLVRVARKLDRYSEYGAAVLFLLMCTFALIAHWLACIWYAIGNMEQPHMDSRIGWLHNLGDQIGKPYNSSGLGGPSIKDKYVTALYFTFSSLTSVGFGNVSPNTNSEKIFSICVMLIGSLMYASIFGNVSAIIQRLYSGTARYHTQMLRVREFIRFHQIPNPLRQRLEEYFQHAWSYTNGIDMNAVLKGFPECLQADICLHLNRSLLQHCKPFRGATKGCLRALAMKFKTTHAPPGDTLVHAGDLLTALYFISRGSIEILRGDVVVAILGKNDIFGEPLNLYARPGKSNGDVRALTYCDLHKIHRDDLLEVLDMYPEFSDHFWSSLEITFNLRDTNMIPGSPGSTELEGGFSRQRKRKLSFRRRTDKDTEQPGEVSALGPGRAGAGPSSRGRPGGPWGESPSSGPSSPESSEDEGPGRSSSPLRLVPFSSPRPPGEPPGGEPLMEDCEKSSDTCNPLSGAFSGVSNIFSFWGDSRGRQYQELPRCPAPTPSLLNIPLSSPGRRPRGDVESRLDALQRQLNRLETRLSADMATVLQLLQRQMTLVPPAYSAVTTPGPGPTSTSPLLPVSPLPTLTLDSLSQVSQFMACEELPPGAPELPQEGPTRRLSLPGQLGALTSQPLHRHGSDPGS

Going from `Cc1cc([N+](=O)[O-])ccc1NC(=O)C1CCCO1` (stereo not drawn) to `COc1ccc([N+](=O)[O-])cc1NC(=O)CSCc1cc(C)cc(C)c1`, the “hERG current change (%, negative = inhibition) at 10uM” value rises from -15.7% to 13.1%.

First: COC(=O)c1nc(NC(=O)c2cc(OC)c(OC)c(OC)c2)n[nH]1
Second: COc1cc(C(CCN2CCCC2)c2c(OC)cc(OC)c3c(C)cc(=O)oc23)cc(OC)c1OC (stereo not drawn)
The “hERG current change (%, negative = inhibition) at 10uM” value of the first is higher: 1.78% for the first, -75.5% for the second.

Going from `COc1ccc(OCCCC(=O)Nc2cc(S(=O)(=O)N3CCCCC3)ccc2OC)cc1` to `COc1ccc(OC)c(CNC(=O)c2cc(=O)[nH]c3ccc(S(=O)(=O)N4CCCC4)cc23)c1`, the “hERG current change (%, negative = inhibition) at 10uM” value rises from -0.647% to 14.3%.

First: COc1ccc(NC(=O)CN(C)C2CCS(=O)(=O)C2)cc1 (stereo not drawn)
Second: Cc1ccc(S(=O)(=O)N2CCC(C(=O)OCC(=O)N(C)C3CCS(=O)(=O)C3)CC2)cc1C (stereo not drawn)
The “hERG current change (%, negative = inhibition) at 10uM” value of the first is higher: 16.5% for the first, -21.4% for the second.

First: CN(C)C1=NCCN1CCc1ccc(F)cc1
Second: O=C(NCCc1ccc2c(c1)OCCO2)c1cccc(F)c1
The “hERG current change (%, negative = inhibition) at 10uM” value of the first is lower: -9.03% for the first, 5.29% for the second.

Compared with `O=C(c1ccc(F)cc1)N1CCCCC(Sc2nnnn2-c2ccccc2)C1=O` (stereo not drawn), `CC(=O)N1c2ccccc2NC2=C(C(=O)CCC2)C1c1ccc(F)cc1` (stereo not drawn) is higher in “hERG current change (%, negative = inhibition) at 10uM” value: -29.3% for the first, -1.85% for the second.

Compared with `CCOc1ccc(CNc2nnnn2C)cc1OC`, `CCOc1ccc(CCn2c(-c3ccco3)nc3ccccc3c2=O)cc1OCC` is lower in “hERG current change (%, negative = inhibition) at 10uM” value: 8.61% for the first, -18.1% for the second.

Compared with `CC1(C)N=C(c2cccs2)C(C)(C)N1O`, `COC(=O)c1cccc(NC(=O)c2cccs2)c1C` is lower in “hERG current change (%, negative = inhibition) at 10uM” value: 19.3% for the first, 10.8% for the second.

Compared with `O=C(CCNC(=O)c1ccc(Cl)cc1)Nc1ccc(F)cc1F`, `CC(=O)c1cccc(NC(=O)CCNC(=O)c2cccc(C)c2)c1` is lower in “hERG current change (%, negative = inhibition) at 10uM” value: 13.1% for the first, 0.379% for the second.

Going from `CC(=O)O.O=C(NCC1CCCCN1)c1cc(OCC(F)(F)F)ccc1OCC(F)(F)F` (stereo not drawn) to `CCOC(=O)C1=C(c2ccccc2)O/C(=C(/C(=O)OC)C(F)(F)F)S1`, the “hERG current change (%, negative = inhibition) at 10uM” value rises from -49.4% to -3.45%.

Compared with `CC(C)(C)c1ccc(NC(=O)c2ccccc2)c([N+](=O)[O-])c1`, `Cc1occc1C(=O)NNC(=O)c1ccccc1[N+](=O)[O-]` is higher in “hERG current change (%, negative = inhibition) at 10uM” value: 0.655% for the first, 16.6% for the second.

Compared with `CCOC(=O)C(CN1CCCC1)c1ccccc1` (stereo not drawn), `CCC(C)[C@H](NC(=O)N1CCn2c1nc1ccccc12)C(=O)NCC1CCCO1` (stereo partly drawn) is higher in “hERG current change (%, negative = inhibition) at 10uM” value: -5.11% for the first, -1.61% for the second.

First: CCOC(=O)C1Nc2ccccc2C2c3ccccc3CC12 (stereo not drawn)
Second: CN(Cc1ccccc1)C(=O)COc1ccccc1
The “hERG current change (%, negative = inhibition) at 10uM” value of the first is lower: -10.1% for the first, 19.3% for the second.

First: CCC(C)c1ccccc1N1CC(C(=O)NCCC2=CCCCC2)CC1=O (stereo not drawn)
Second: CCC1Oc2ccccc2N(CC(=O)NCCCN2CCC(C)CC2)C1=O (stereo not drawn)
The “hERG current change (%, negative = inhibition) at 10uM” value of the first is higher: 8.97% for the first, -20.3% for the second.

Going from `COc1ccc(CN2CCN(C(=O)C3CC(=O)N(C4CCCCCC4)C3)CC2)c(OC)c1OC` (stereo not drawn) to `COc1cc(N2CCOCC2)ccc1/C=C1\C(=O)NC(=O)N(C2CCCCC2)C1=O`, the “hERG current change (%, negative = inhibition) at 10uM” value rises from 0.00918% to 0.165%.

First: OCC1CCCN(C(=S)Nc2ccc(Oc3ccccc3)cc2)C1 (stereo not drawn)
Second: COc1ccc(NC(=S)N2CCN(c3ccccn3)CC2)cc1OC
The “hERG current change (%, negative = inhibition) at 10uM” value of the first is lower: -24.6% for the first, 1.27% for the second.

First: COC(=O)c1ccccc1NC(=S)NC(=O)c1ccc(C)cc1
Second: COc1ccc(C(=O)c2cc(C(C)=O)c(Nc3ccccc3)s2)cc1
The “hERG current change (%, negative = inhibition) at 10uM” value of the first is lower: -1.62% for the first, 12.5% for the second.

Going from `Cc1ccc(NC(=O)CN(C)S(=O)(=O)c2ccc3c(c2)c(=O)n(C)c(=O)n3C)cc1` to `COC(CNC(=O)c1ccc(CS(=O)(=O)c2ccc(C)cc2)o1)OC`, the “hERG current change (%, negative = inhibition) at 10uM” value falls from 13% to -10%.

Going from `COC(=O)C(C)NC(=O)C1CCCN1S(=O)(=O)c1cc(C)c(Cl)cc1C` (stereo not drawn) to `Cc1cc(SCC(=O)NN=C2CCN(C(C)C)CC2)c(C)cc1Br`, the “hERG current change (%, negative = inhibition) at 10uM” value falls from 2.58% to -69.4%.

Going from `O=C(CCCCC(=O)NNC(=O)COc1ccccc1)NNC(=O)COc1ccccc1` to `O=Cc1ccc(OCC(=O)Nc2ccccc2-c2ccccc2)cc1`, the “hERG current change (%, negative = inhibition) at 10uM” value falls from -0.682% to -13.7%.

Compared with `CN(C)CCCN(C(=O)c1ccc(S(=O)(=O)N2CCCC2)cc1)c1nc2ccc(Br)cc2s1.Cl`, `CCCn1nc(C(=O)N2CCN(S(=O)(=O)c3ccc(C)c(C)c3)CC2)c2ccccc2c1=O` is higher in “hERG current change (%, negative = inhibition) at 10uM” value: -47.9% for the first, -28.3% for the second.

Compared with `O=C(CCN1C(=O)/C(=C/C=C/c2ccccc2)SC1=S)Nc1nc2ccccc2s1`, `O=C1CN(C(=O)COC(=O)CNS(=O)(=O)/C=C/c2ccccc2)c2ccccc2N1` is lower in “hERG current change (%, negative = inhibition) at 10uM” value: 18.3% for the first, 11.2% for the second.

Compared with `Cc1ccn2c(=O)nc(SCC(=O)N3CCCCC3)nc2c1`, `Cc1ccc(NC(=O)CCC(=O)N2CCOCC2)nc1` is higher in “hERG current change (%, negative = inhibition) at 10uM” value: -8.19% for the first, 13% for the second.

Going from `CCOC(=O)COc1cc(N2C(=O)CSCC2=O)c(Cl)cc1Cl` to `O=C1CN(c2cc(Cl)cc(Cl)c2)C(=O)CN1/N=C/c1cccnc1`, the “hERG current change (%, negative = inhibition) at 10uM” value falls from 3.73% to -1.49%.

First: O=C(C1CCCN(c2ncnc3c2nc2n3CCCCC2)C1)N1CCN(c2ccc(Cl)cc2)CC1 (stereo not drawn)
Second: Cc1ccc(Cl)cc1N1CCN(CC(=O)Nc2ccc(CN3CCCCC3)cc2)CC1.Cl
The “hERG current change (%, negative = inhibition) at 10uM” value of the first is higher: -54.8% for the first, -71.1% for the second.

Compared with `COc1ccc([C@@H]2CC=C(C(=O)O)[C@H](c3ccc(F)cc3)N2S(=O)(=O)c2ccc(Cl)cc2)cc1`, `O=C(NCc1ccc(F)cc1)c1ccc(CS(=O)(=O)Cc2ccccc2F)o1` is lower in “hERG current change (%, negative = inhibition) at 10uM” value: 27.2% for the first, -23.4% for the second.

Compared with `COCCNC(=O)c1ccc2c3n(nc2c1)-c1ccc(Cl)cc1CO3`, `CCCNC(=O)c1ccc2c(c1)ncn2-c1ccccc1OC` is lower in “hERG current change (%, negative = inhibition) at 10uM” value: -22% for the first, -60.3% for the second.

Compared with `COCC(=O)N(Cc1cc2ccc(C)cc2[nH]c1=O)c1ccc(OC)cc1`, `Cc1ccc(C)c(N(C(=O)Cc2cccs2)C(C(=O)NC2CCCC2)c2ccc(C)o2)c1` (stereo not drawn) is higher in “hERG current change (%, negative = inhibition) at 10uM” value: -6.22% for the first, 8.63% for the second.

First: Cc1cccc(Nc2c(F)c(F)c(F)c(F)c2C(=O)O)c1
Second: CC1(C(=O)N/N=C/c2c(F)c(F)c(F)c(F)c2F)CC1(Cl)Cl (stereo not drawn)
The “hERG current change (%, negative = inhibition) at 10uM” value of the first is higher: 26.8% for the first, 6.83% for the second.

First: O=C(Nc1cc(C(F)(F)F)ccc1N1CCOCC1)C1Cc2ccccc2CN1C(=O)c1ccco1 (stereo not drawn)
Second: Cc1ccc(S(=O)(=O)N2CCOCC2)cc1C(=O)N1c2ccccc2Sc2ccccc21
The “hERG current change (%, negative = inhibition) at 10uM” value of the first is higher: 1.05% for the first, -4.39% for the second.

First: O=S(=O)(c1ccccc1)c1nc(-c2ccccc2)oc1NCCCN1CCOCC1
Second: CCCN(Cc1nnc(-c2ccccc2Cl)o1)C(=O)c1cc2ccccc2o1
The “hERG current change (%, negative = inhibition) at 10uM” value of the first is lower: -43.9% for the first, -17% for the second.

First: O=C(Cn1c(=O)n(Cc2ccco2)c(=O)c2ccccc21)NCC1CCCO1 (stereo not drawn)
Second: COc1ccc(NC(=O)CSc2nnc(-c3ccncc3)n2CC2CCCO2)c(OC)c1 (stereo not drawn)
The “hERG current change (%, negative = inhibition) at 10uM” value of the first is lower: 2.5% for the first, 6.28% for the second.

Going from `CC(C)OCCCNC(=O)CN1CCN(Cc2ccccc2Cl)C1=O` to `CCCNC(=O)CN1CCN(S(=O)(=O)c2ccc(Br)s2)CC1`, the “hERG current change (%, negative = inhibition) at 10uM” value falls from -1.69% to -34.5%.

First: CC(=O)c1ccc(N2CCN(C(=O)c3noc4c3CSc3ccccc3-4)CC2)cc1
Second: CCC1(c2ccc(F)cc2)NC(=O)N(CC(=O)N2CCc3ccccc32)C1=O (stereo not drawn)
The “hERG current change (%, negative = inhibition) at 10uM” value of the first is higher: 17.2% for the first, -21.5% for the second.

First: CCNc1c2c(nc3ccccc13)CC(C)(C)CC2=O.O=C(O)C(=O)O
Second: CN(CC(=O)Nc1sc2c(c1C#N)CCCCC2)Cc1nc2ccccc2c(=O)[nH]1
The “hERG current change (%, negative = inhibition) at 10uM” value of the first is lower: -69.9% for the first, -4.73% for the second.

First: O=C(O)C1CSC(c2ccc3c(c2)OCO3)N1 (stereo not drawn)
Second: O=C(NCc1ccc2c(c1)OCO2)c1ccccc1Cl
The “hERG current change (%, negative = inhibition) at 10uM” value of the first is higher: 20.3% for the first, -2.6% for the second.

First: COc1ccc(OC)c(NC(=O)Nc2ccc3c(c2)CCC3)c1
Second: CC(C(=O)Nc1ccc(F)cc1Cl)N(C)CCOc1ccccc1 (stereo not drawn)
The “hERG current change (%, negative = inhibition) at 10uM” value of the first is higher: 10.7% for the first, -10.5% for the second.

Compared with `Cn1c(SCC(=O)Nc2cc(C(C)(C)C)nn2-c2ccccc2)nc2ccccc21`, `O=C(O)c1cccnc1SC1CC(=O)N(CCc2ccccc2)C1=O` (stereo not drawn) is higher in “hERG current change (%, negative = inhibition) at 10uM” value: -29.9% for the first, 6.2% for the second.

Going from `O=C1COc2ccc(S(=O)(=O)Nc3ccc(F)cc3)cc2N1` to `O=C(NCc1ccc(Cl)cc1)C(=O)NCC1OCCN1S(=O)(=O)c1ccc2c(c1)OCCO2` (stereo not drawn), the “hERG current change (%, negative = inhibition) at 10uM” value falls from 9.67% to -7.02%.

Going from `CCCn1c(SCC(=O)c2ccc3c(c2)OCCO3)nnc1-c1ccco1` to `CCCCn1c(=O)cc(O)c2ccccc21`, the “hERG current change (%, negative = inhibition) at 10uM” value rises from 8.28% to 12.7%.

Compared with `CS(=O)(=O)N(CC(=O)N1CCOCC1)c1cccc(F)c1`, `CSCCCNC(=S)Nc1ccc(N2CCOCC2)cc1` is higher in “hERG current change (%, negative = inhibition) at 10uM” value: 23.4% for the first, 27.7% for the second.

Compared with `CCCCn1c(-c2ccc(Br)cc2F)nc2c1c(=O)[nH]c(=O)n2CC(C)C`, `CCC(C)[C@H]1COCCS(=O)(=O)N1Cc1ccc(Cl)cc1Cl` (stereo partly drawn) is lower in “hERG current change (%, negative = inhibition) at 10uM” value: 7.26% for the first, -14.6% for the second.

Compared with `CCOC(=O)C1=C(C)NC(=O)NC1c1ccsc1` (stereo not drawn), `C=Cn1ccnc1P(O)(=S)c1nc(C)c(CCOC(C)=O)s1` (stereo not drawn) is lower in “hERG current change (%, negative = inhibition) at 10uM” value: 10.5% for the first, 4.85% for the second.

`Cc1nnc(NC(=O)C2CCCN(c3ncccn3)C2)s1` (stereo not drawn) was tested, and the “hERG current change (%, negative = inhibition) at 10uM” value was 4.1%.
